# Results taken from article PMC4354016, “Centromeric binding and activity of Protein Phosphatase 4” (Nature Communications, 2015).
# These are yes or no findings as the source states them, for the method shown. Binding seen in cells or lysates may run through a third protein. Some entries that bind do so weakly or less than the wild type. Sequences can lack the tags named with a protein.
# T1: GST-tagged Flfl^N (aa 1–361) (Drosophila melanogaster) (UniProt Q9VFS5)
# T1 sequence: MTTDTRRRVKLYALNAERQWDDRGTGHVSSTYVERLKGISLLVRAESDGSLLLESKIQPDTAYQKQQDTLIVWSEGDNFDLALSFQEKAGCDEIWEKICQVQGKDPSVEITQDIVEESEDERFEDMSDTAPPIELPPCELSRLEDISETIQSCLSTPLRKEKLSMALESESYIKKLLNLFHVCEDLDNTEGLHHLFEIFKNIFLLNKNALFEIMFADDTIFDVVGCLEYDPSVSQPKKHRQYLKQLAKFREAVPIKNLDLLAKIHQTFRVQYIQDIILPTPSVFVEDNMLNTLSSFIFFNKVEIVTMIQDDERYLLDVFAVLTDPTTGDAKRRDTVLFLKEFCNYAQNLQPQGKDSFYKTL
# T2: GST-tagged Flfl^M (aa 362–666) (Drosophila melanogaster) (UniProt Q9VFS5)
# T2 sequence: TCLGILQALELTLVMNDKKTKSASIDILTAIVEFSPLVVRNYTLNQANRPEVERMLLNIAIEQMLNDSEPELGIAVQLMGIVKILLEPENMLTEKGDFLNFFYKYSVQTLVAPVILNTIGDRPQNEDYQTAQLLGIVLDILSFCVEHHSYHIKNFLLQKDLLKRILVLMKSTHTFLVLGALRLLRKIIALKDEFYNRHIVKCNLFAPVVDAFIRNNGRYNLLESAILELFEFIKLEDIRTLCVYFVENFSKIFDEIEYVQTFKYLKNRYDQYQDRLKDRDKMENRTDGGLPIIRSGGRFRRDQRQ
# T3: GST-tagged Flfl^169–361 (aa 169–361) (Drosophila melanogaster) (UniProt Q9VFS5)
# T3 sequence: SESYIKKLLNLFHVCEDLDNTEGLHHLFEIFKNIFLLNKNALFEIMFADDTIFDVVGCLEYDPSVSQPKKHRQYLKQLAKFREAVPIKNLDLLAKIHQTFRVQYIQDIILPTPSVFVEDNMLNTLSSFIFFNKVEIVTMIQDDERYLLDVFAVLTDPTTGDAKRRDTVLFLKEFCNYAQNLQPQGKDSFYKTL
# T4: GST-tagged Flfl^1–168 (aa 1–168) (Drosophila melanogaster) (UniProt Q9VFS5)
# T4 sequence: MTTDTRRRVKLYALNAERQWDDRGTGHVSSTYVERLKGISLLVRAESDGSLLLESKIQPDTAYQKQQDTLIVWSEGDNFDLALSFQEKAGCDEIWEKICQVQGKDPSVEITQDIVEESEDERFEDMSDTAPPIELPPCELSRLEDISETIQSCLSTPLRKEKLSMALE
# T5: GST-tagged full-length CENP-C (Drosophila melanogaster) (UniProt Q9VHP9)
# T5 sequence: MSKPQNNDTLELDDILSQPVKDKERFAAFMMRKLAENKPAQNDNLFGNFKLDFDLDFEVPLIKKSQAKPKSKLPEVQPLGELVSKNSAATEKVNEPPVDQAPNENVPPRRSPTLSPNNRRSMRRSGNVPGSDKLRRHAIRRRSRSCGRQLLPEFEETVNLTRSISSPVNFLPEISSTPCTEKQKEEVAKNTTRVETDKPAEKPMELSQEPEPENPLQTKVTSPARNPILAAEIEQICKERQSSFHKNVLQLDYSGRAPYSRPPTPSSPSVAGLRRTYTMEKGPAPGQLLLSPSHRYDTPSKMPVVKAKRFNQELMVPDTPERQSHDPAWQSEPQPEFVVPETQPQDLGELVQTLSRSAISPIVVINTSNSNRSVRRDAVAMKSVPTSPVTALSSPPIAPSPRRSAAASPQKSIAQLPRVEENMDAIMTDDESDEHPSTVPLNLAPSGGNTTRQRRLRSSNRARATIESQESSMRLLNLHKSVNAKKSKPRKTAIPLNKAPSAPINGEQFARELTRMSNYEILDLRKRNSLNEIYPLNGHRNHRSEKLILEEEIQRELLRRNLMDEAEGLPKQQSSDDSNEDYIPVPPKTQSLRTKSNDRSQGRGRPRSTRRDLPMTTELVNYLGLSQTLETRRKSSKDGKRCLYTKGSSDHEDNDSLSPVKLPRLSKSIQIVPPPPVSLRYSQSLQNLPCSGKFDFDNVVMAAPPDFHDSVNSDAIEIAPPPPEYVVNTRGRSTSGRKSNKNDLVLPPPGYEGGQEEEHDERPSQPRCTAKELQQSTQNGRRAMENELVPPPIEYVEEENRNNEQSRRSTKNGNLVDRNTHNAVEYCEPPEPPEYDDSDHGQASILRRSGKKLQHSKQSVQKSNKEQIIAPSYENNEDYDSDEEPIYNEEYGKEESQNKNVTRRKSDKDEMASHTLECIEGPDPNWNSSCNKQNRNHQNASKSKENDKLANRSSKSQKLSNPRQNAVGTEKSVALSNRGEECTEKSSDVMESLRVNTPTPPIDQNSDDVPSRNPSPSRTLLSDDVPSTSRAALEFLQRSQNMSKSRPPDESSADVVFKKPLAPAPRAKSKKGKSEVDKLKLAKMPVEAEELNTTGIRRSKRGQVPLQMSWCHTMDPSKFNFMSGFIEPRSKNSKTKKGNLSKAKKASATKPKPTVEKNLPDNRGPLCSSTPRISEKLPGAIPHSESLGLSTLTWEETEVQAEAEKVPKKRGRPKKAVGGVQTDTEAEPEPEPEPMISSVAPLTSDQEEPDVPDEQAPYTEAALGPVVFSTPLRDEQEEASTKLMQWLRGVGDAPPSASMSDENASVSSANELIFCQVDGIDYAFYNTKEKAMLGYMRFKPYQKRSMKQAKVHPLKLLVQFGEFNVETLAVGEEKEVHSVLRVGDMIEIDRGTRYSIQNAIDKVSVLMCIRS
# B1: ^35S-Met-labelled full-length CENP-C (IVTT) (protein, UniProt Q9VHP9 1-1411)
# chain: T5 sequence
# modifications: 35S-methionine labelled
# B2: ^35S-Met-labelled CENP-C^FBD (IVTT) (domain or fragment, UniProt Q9VHP9 1002-1093)
# chain: IDQNSDDVPSRNPSPSRTLLSDDVPSTSRAALEFLQRSQNMSKSRPPDESSADVVFKKPLAPAPRAKSKKGKSEVDKLKLAKMPVEAEELNT
# modifications: 35S-methionine labelled
# B3: ^35S-Met-labelled PP4c (IVTT) (enzyme, UniProt O76932 1-307)
# chain: MSDYSDLDRQIEQLKRCEIIKENEVKALCAKAREILVEEGNVQRVDSPVTVCGDIHGQFYDLKELFKVGGDVPEKNYLFMGDFVDRGYYSVETFLLLLALKVRYPDRITLIRGNHESRQITQVYGFYDECLRKYGSTAVWRYCTEIFDYLSLSAIIDGKIFCVHGGLSPSIQYLDQIRSIDRKQEVPHDGPMCDLLWSDPEDQTGWGVSPRGAGYLFGSDVVSQFNRTNDIDMICRAHQLVMEGFKWHFNETVLTVWSAPNYCYRCGNVAAILELNEYLHRDFVIFEAAPQESRGIPSKKPQADYFL
# modifications: 35S-methionine labelled
# Experiments:
# Assay in all cases: pull-down; GST-tagged bait on Glutathione Sepharose 4b, IVTT 35S-Met-labelled prey, 1 h 25 °C, 50 mM HEPES pH 7.4, 150 mM NaCl, 0.1% Triton X-100, 0.5 mg/ml BSA; autoradiography; only the target purified
# [1] = molecular target: T1, GST-tagged Flfl^N (aa 1–361) (Drosophila melanogaster)
# [2] = molecular target: T2, GST-tagged Flfl^M (aa 362–666) (Drosophila melanogaster)
# [3] = molecular target: T3, GST-tagged Flfl^169–361 (aa 169–361) (Drosophila melanogaster)
# [4] = molecular target: T4, GST-tagged Flfl^1–168 (aa 1–168) (Drosophila melanogaster)
# [5] = molecular target: T5, GST-tagged full-length CENP-C (Drosophila melanogaster)
Binder,binding [1],binding [2],binding [3],binding [4],binding [5]
B1,binds,no binding,–,–,–
B2,binds,–,no binding,binds,–
B3,–,–,–,–,no binding
